About 16,000 (7.3%) of roughly 220,000 compounds were called active. Inconclusive means that the source gave no clear call. Such entries were picked first, then a sample of the others. Calls follow the shape of the dose curve; as a rule, active = well fitted inhibition curve with a large enough effect (not every such curve was filed as active); inconclusive = small, poorly fitted or top-dose-only effect, or another doubt; inactive = no such curve, though single readings can be large or run the other way. Potencies of inconclusive entries are doubtful fits and often do not repeat.
Each molecule was assayed against Aldehyde dehydrogenase 1A1 (Homo sapiens) (UniProt P00352) (assay: qHTS Assay for Inhibitors of Aldehyde Dehydrogenase 1 (ALDH1A1)). Settings: Purified ALDH1A1, NADH fluorescence, propionaldehyde substrate; series mostly up to 75.3 µM; activity, negative = inhibition: at the top concentration.
Sequence of UniProt P00352 (P00352 whole entry, looked up): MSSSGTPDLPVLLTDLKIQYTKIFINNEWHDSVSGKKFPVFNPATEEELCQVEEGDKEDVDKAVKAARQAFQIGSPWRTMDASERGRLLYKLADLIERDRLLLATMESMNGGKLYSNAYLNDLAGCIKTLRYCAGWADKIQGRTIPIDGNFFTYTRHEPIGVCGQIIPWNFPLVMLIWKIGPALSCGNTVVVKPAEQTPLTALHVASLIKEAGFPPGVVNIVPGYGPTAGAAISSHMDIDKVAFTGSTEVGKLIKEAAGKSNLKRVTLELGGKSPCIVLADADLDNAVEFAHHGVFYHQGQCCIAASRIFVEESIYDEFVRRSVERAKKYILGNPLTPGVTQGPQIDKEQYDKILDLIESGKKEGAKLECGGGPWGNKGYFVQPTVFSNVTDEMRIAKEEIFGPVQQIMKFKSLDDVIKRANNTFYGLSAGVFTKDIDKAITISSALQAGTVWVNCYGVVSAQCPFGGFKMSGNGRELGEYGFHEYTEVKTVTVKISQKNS

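For activity, negative = inhibition in this document: plate controls were no enzyme wells and a reference inhibitor.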
Potency is read from the fitted curve at half-maximal effect; tags tell the direction and shape of the fitted curve.

activity, negative = inhibition, inactive:
COc1ccc(CCNC(=O)CSc2ccc(-c3cccs3)nn2)cc1OC 14.4%
CN(C)C(=O)/C(=C\c1cccc(Oc2ccccc2)c1)NC(=O)c1ccccc1 -0.495%
CCn1c(SCC(=O)Nc2ccc(C(C)=O)cc2)nc2ccccc21 -2.49%
CCc1cccc(C)c1NC(=O)C1CCN(C(=O)c2ccc([N+](=O)[O-])cc2)CC1 1.99%
Cc1nc(SCC(=O)N2c3ccccc3Sc3ccccc32)n[nH]1 11.1%
CC1CCC2C(=O)OC(COc3ccc(C(C)(C)C)cc3)CN2C1c1ccc(Br)cc1 (stereo not given) 7.63% [at 13.5 µM] [middle of 5 runs]
CCN1C(C)=C(C(=O)OC)C(c2ccccc2)N2C(=O)[C@](O)(C(=O)OC)CC(C(C)=O)=C12 (stereo not given in full) -1.39% [at 13.5 µM]
O=C1C2CC=C(Cl)CC2C(=O)N1CCN1CCOCC1 (stereo not given) -3.37%
CC(C)=CCN1CCN(Cc2ccc(C#CC(C)(C)O)s2)CC1CCO (stereo not given) 3.92%
FC(F)(F)c1cnc(Oc2ccccc2-c2nnco2)c(Cl)c1 13.7%
COc1cccc(CNC(=O)C2CCC(CNc3nc(=S)[nH]c4ccccc34)CC2)c1 (stereo not given) -10.4%

Potency, active:
Cc1cc(C(=O)CCl)c(C)n1CCc1ccccc1 0.0316 µM
Cc1nn(CC(O)c2ccccc2)c(C)c1Br (stereo not given) 17.8 µM
CCc1ccc(C=NC23CN4CN(CN(C4)C2)C3)s1 7.94 µM
CC1CCN(S(=O)(=O)c2ccc(NC(=O)CSc3ncccc3C(=O)O)cc2)CC1 25.1 µM
CCCCCCC(=O)N(O)C1CC(=O)N(c2ccc(C)cc2)C1=O (stereo not given) 0.447 µM
Cc1ccc(O)c(C(=O)c2cc(C#N)c(=O)n(-c3nccs3)c2)c1 8.91 µM
CC(C)(C)n1nnnc1CN(Cc1ccc(F)cc1)Cc1ccco1 14.1 µM
c1coc(-c2nnc3sc(C4CCCCC4)nn23)c1 12.6 µM
Cc1ccc(NC(=O)/C=C/C(=O)O)c([N+](=O)[O-])c1 17.8 µM

Potency, inconclusive:
COc1ccc(-n2nnnc2SCC(=O)NCCc2ccc(OC)c(OC)c2)cc1 39.8 µM [inhibitor, single point]
S=c1[nH]nc(C2COc3ccccc3O2)o1 (stereo not given) 31.6 µM [inhibitor, single point]
Cc1ccc(NC(=O)CN(c2ccc(C)cc2)S(=O)(=O)c2cccc3nonc23)cc1 39.8 µM [inhibitor, single point]
Cc1snnc1C(=O)NC(=S)Nc1ccccc1 39.8 µM [inhibitor, single point]
CCN(C(=O)c1ccco1)c1nnc(-c2ccc(OC)cc2)s1 25.1 µM [inhibitor, partial curve]
CCOC(=O)C(Oc1ccc2c(-c3ccccc3)cc(=O)oc2c1C)c1ccccc1 (stereo not given) 28.2 µM [inhibitor, partial curve]
CN1C(=O)SC(Nc2ccccc2C(=O)O)C1=O (stereo not given) 25.1 µM [inhibitor, partial curve]
COc1ccc(S(=O)(=O)N2CCC(C(=O)NCCc3ccc4c(c3)OCO4)CC2)cc1 8.91 µM [inhibitor, partial curve]
C/C(N)=C(/C#N)C(=O)CSc1n[nH]c(-c2ccccc2Br)n1 39.8 µM [inhibitor, single point]
COc1ccc(C(=O)Nc2ccc(NC(=O)c3cccs3)c(OC)c2)cc1Cl 37.7 µM [inhibitor, single point]
Cc1ccc(C)c2[nH]c(=O)c(CN(CCN3CCCC3)C(=O)Nc3cccc(Cl)c3)cc12 35.5 µM [inhibitor, single point]
Cc1nnc(SCC(=O)Nc2ccc3c(c2)COC3=O)n1-c1ccccc1 31.6 µM [inhibitor, single point]
O=C(N/N=C/c1cccs1)c1cccc2cc[nH]c12 28.2 µM [inhibitor, partial curve]
COc1cccc(C(=O)N(Cc2ccccc2)Cc2cc3cc4c(cc3[nH]c2=O)OCCO4)c1 25.1 µM [inhibitor, partial curve]
COC(=O)[C@@H]1C[C@@H]2CC[C@@H](O)C[C@@H]2N1Cc1ccccc1OS(=O)(=O)c1ccc(C)cc1 22.4 µM [inhibitor, single point]
CCN1CCN(C(c2cccs2)C(C)NC(=O)c2ccco2)CC1 (stereo not given) 39.8 µM [inhibitor, single point]
CC1(C)CC(=O)C(C=NCCN2CCN(C(=O)c3ccc(Br)cc3)CC2)=C(O)C1 39.8 µM [inhibitor, single point]
COCCOC(=O)C1=C(C)N=c2s/c(=C\c3cccs3)c(=O)n2C1c1cccs1 (stereo not given) 39.8 µM [inhibitor, single point]
COc1ccc(C)cc1NC(=O)c1nnn(CCc2ccccc2)c1N 39.8 µM [inhibitor, single point]
NC(=O)/C=C\c1cn(-c2ccccc2)nc1-c1ccc2c(c1)OCCO2 39.8 µM [inhibitor, single point]
COc1ccccc1NC(=O)C(=O)Nc1ccccn1 25.1 µM [inhibitor, partial curve]
Cc1cccc(C(=O)N2CCC(=O)N(C(COCc3ccccc3)Cc3ccccc3)CC2)c1 (stereo not given) 39.8 µM [inhibitor, single point]
Cc1ccc(S(=O)(=O)c2c(N)n(Cc3ccco3)c3nc4ccccc4nc23)cc1C 25.1 µM [inhibitor, partial curve]
CCOC(=O)c1cc(C#N)c(SCC(=O)c2cc(C#N)c(SC)nc2C)nc1C 0.794 µM [inhibitor, full curve]
O=C(Nc1ccc(Br)cc1)c1ccc(N2C(=O)C3CC=CCC3C2=O)cc1 (stereo not given) 11.2 µM [inhibitor, partial curve]
